Laboratory results from article PMC4336329 (PLoS ONE, 2015).
The campaign covered roughly 310,000 compounds. About 2,200 (0.71%) showed an effect of 50% or more. Effects have a minus sign here. The list shows a part of the results.

Target: human ether-à-go-go-related gene (hERG) potassium channel (human, UniProt Q12809)
Assay: primary screen, population patch clamp on CHO cells stably expressing hERG

Chain of human ether-à-go-go-related gene (hERG) potassium channel (Q12809 whole entry, looked up): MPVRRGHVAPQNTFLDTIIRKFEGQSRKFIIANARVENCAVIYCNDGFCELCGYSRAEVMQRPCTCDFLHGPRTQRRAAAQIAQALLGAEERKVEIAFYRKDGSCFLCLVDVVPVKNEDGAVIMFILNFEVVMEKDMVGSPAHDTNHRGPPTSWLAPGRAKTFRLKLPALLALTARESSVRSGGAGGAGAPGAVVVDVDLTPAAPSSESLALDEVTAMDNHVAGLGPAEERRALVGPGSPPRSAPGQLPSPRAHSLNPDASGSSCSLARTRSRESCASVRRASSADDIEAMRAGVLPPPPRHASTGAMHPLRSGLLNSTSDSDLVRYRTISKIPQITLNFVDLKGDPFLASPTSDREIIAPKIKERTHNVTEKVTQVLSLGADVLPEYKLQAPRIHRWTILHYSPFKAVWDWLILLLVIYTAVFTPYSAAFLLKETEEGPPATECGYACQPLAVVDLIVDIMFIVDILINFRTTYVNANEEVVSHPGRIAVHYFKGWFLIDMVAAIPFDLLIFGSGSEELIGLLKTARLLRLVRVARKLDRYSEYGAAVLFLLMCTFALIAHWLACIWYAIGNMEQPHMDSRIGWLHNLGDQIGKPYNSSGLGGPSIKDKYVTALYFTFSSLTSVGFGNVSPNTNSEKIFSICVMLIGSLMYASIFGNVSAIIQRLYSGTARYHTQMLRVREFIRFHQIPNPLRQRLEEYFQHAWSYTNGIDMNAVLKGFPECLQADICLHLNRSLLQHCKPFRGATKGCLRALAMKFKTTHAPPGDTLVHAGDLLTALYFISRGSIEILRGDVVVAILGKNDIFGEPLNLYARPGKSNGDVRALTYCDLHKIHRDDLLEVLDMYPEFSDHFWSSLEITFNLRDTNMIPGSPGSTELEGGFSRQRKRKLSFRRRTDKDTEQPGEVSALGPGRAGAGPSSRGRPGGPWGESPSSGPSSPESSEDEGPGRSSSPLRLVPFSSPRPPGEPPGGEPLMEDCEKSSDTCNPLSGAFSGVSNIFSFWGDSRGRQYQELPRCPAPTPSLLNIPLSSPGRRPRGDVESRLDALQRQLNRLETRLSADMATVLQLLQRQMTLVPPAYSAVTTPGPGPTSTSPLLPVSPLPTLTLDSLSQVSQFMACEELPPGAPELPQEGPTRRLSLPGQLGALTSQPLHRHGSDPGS

| SMILES | hERG current change (%, negative = inhibition) at 1uM |
| --- | --- |
| CCN1CCN(C(=O)c2cc3c(=O)n(C)c4ccccc4c3n2C)CC1 | 8.54% |
| Cc1cc(C)n(CC(C)(O)c2ccccc2)n1 (stereo not drawn) | 12.8% |
| O=[N+]([O-])c1ccc(N2CCOCC2)cc1NCCCO | 18% |
| CCCC(=O)Nc1cccc(S(=O)(=O)N(C)c2ccccc2)c1 | 4.57% |
| Cc1ccc(C)c(C(=O)CN2C(=O)CCC2=O)c1 | 7.07% |
| CS(=O)(=O)N(CC(=O)NC1CCCC1)C1CCCCC1 | 8.35% |
| O=C(Cn1cc(C(=O)c2ccccc2F)c2ccccc21)NCc1ccco1 | 10.9% |
| O=C(Oc1cccc(Nc2ncnc3ccccc23)c1)c1ccccc1Cl | 14.7% |
| O=C(Nc1ccc(C(=O)OC2CCCCC2)cc1)c1ccncc1 | 11.7% |
| CC1CN(C(=O)CCC(=O)NCc2ccc(F)cc2)c2ccccc2S1 (stereo not drawn) | 3.73% |
| COc1c2c(nc3occc13)C(CCC(C)(C)O)(OC)C(O)CC2 (stereo not drawn) | 8.17% |
| Cc1nc2ccccc2c(=O)n1-c1ccc(Cl)cc1Cl | 5.22% |
| CCNc1nc(-c2cc3ccccc3o2)cs1 | 8.29% |
| CCOC(=O)c1nnn(-c2nonc2N)c1CS(=O)(=O)c1ccccc1 | 12.1% |
| Cc1ccc(CN2CCN(CC(=O)NCCCN3CCN(c4ccc(F)cc4)CC3)C2=O)cc1 | -56.6% |
| COC(=O)c1ccccc1-n1c(CCC(=O)O)ccc1-c1ccccc1 | 5.16% |
| Cc1ccc(N(CC(=O)N/N=C/c2cccnc2)S(=O)(=O)c2ccccc2)cc1 | -9.45% |
| Cc1cccc(N(Cc2cc3ccccc3[nH]c2=O)C(=O)c2ccco2)c1C | 5.28% |
| Cc1ccc2[nH]c(=O)c(CN(CCCN3CCOCC3)Cc3nnnn3C3CCCC3)cc2c1 | -4.76% |
| CC(=O)NC1=NN(C(C)=O)C(C)(CS(=O)(=O)c2ccc(Cl)cc2)S1 (stereo not drawn) | 12.6% |
| O=C(CN(Cc1ccc(Br)cc1)S(=O)(=O)c1ccccc1)NCc1cccnc1 | 12.2% |
| Oc1ccccc1CNc1cccc2cccnc12 | 10.5% |
| C#CCNC(=O)c1cc2sccc2n1C | 0.939% |

| SMILES | hERG current change (%, negative = inhibition) at 1uM |
| --- | --- |
| O=C(COc1ccccc1)Nc1nc2c(s1)CCCC2 | 9.72% |
| Cl.O=C(NCCCNCc1ccccc1)c1ccncc1 | 9.31% |
| Cc1ccc2c(c1)NC(=O)C(CC(=O)NCCCN1CCCC1)O2 (stereo not drawn) | 12.4% |
| CS(=O)(=O)Nc1ccc(OCc2ccccc2)cc1 | 10.1% |
| O=C(c1cc2ccccc2oc1=O)N1CCOCC1 | 11.1% |
| O=C(NCc1cccnc1)C1CC(=O)N(CCc2ccccc2)C1 (stereo not drawn) | 5.44% |
| CCOC(=O)c1noc(C)c1C(=O)Nc1cccc(F)c1 | -2.29% |
| Cc1cc(/C=N/NC(=O)c2cccc([N+](=O)[O-])c2)c(C)n1-c1ccccc1 | 10.2% |
| COc1ccc(Cl)cc1NC(=O)CN(C)C(=O)COc1ccccc1F | 6.13% |
| CCOC(=O)c1c(C(F)(F)C(F)(F)C(F)(F)C(F)(F)F)n[nH]c1C | 7.41% |
| Fc1cccc(Nc2nc3ccccc3n3cnnc23)c1 | 15.4% |
| CC(=O)N1c2ccc(S(=O)(=O)N3CCCC(C(=O)Nc4cc(C)cc(C)c4)C3)cc2CC1C (stereo not drawn) | 12.7% |
| CCOc1ccc(CN2CCN(Cc3[nH]c4ccc(OC)cc4c3C)CC2CCO)cc1 (stereo not drawn) | -76.9% |
| CCOC(=O)c1c(NC(=O)COC(=O)c2ccccn2)sc(C(=O)N(C)C)c1C | 7.64% |
| O=C(CN1C(=O)NC2(CCCCCC2)C1=O)NC1CC1 | 15.5% |
| CCCCOc1ccc(CSc2n[nH]c(C)n2)cc1 | 3.61% |
| COc1ccc(Br)cc1C(=O)Nc1cccc(C)c1C | 2.14% |
| COc1cc(OC)cc(C(=O)NCC(=O)OCC(=O)c2ccc3c(c2)-c2ccccc2C3)c1 | 4.3% |
| CC(=O)NC(CCS(C)(=O)=O)C(=O)Nc1ccc(C)c(F)c1 (stereo not drawn) | -14.9% |
| COc1ccc(OC)c(NC(=O)CN(Cc2ccc(Cl)cc2)S(C)(=O)=O)c1 | 2.7% |
| O=C(CNC(=O)c1ccccc1Br)N/N=C/c1ccco1 | 14.3% |
| CCOC(=O)Cn1nc(C)n(-c2ccc(Cl)cc2)c1=O | 5.95% |
| Cc1c(C(=O)Nc2ccc(N3CCOCC3)cc2)cccc1[N+](=O)[O-] | 8.25% |

| SMILES | hERG current change (%, negative = inhibition) at 1uM |
| --- | --- |
| N#CC1=C(N)Oc2c(c(=O)oc3ccccc23)C1c1ccncc1 (stereo not drawn) | 1.9% |
| CC(C)(C)c1ccc(C(=O)NCCC(=O)N2CCCC2)cc1 | 9.14% |
| C#CCOC(=O)C[N+](C)(C)CC=C.[Cl-] | 12.1% |
| Cc1cc(C(=O)CN2C(=O)NC3(CCCCC3)C2=O)c(C)n1Cc1ccco1 | 4.33% |
| O=C(Nc1nncs1)c1cccc(S(=O)(=O)N2CCCC2)c1 | 7.66% |
| COc1cccc(C(C(=O)NC2CCCC2)N(Cc2cccnc2)C(=O)Cc2cccs2)c1 (stereo not drawn) | 5.68% |
| CCOC(=O)c1c(NC(=O)COC(=O)c2cnc(C)cn2)sc(C(=O)N(C)C)c1C | 14% |
| Cc1nnc(NC(=O)c2nn(CC(C)C)c(=O)c3ccccc23)s1 | 22.4% |
| C=CCn1c(SC(C)C(=O)NC2(C#N)CCCCC2)nnc1-c1ccc(OC)cc1 (stereo not drawn) | 7.7% |
| Brc1ccc(Nc2ncnc3[nH]ncc23)cc1 | -3.27% |
| CC(=O)Nc1ccc(NC(=O)CSc2ncnn2-c2ccccc2)cc1 | 6.61% |
| O=C(C1CCCN(Cc2cccs2)C1)N1CCCCCC1.O=C(O)C(=O)O (stereo not drawn) | 7.61% |
| CCOC(=O)c1[nH]c2ccc(OC)cc2c1NC(=O)c1ccc2c(c1)OCO2 | 15% |
| CCOC(=O)c1cnc2ccc(F)cc2c1Nc1ccc2c(c1)OCCO2 | 9.45% |
| O=C(N/N=C/c1cccs1)[C@H]1C[C@@H]1c1ccccc1 | 3.86% |
| O=C(c1ccccc1)N(C(=O)c1ccccc1)c1ncnc2c1C(c1ccccc1)c1c(ccc3ccccc13)O2 (stereo not drawn) | 10.3% |
| Cc1nc(-c2ccccc2)c(-c2ccccc2)[nH]1 | -7.98% |
| COc1ccc2oc(=O)c(C(=O)N3CCN(c4ccccc4F)CC3)cc2c1 | -3.24% |
| CC(C)CCOC(=O)C1[C@H]2C(=O)N(Cc3cccs3)C[C@]23C=C[C@H]1O3 (stereo partly drawn) | 11.2% |
| O=C(CN(C(=O)c1csnn1)c1cccc2c1CCCC2)NCc1ccc(F)cc1 | -11.1% |
| CCC/C=C1/CCCOC(C(=O)NCc2ccccn2)(C(F)(F)F)C1 (stereo not drawn) | 7.3% |
| O=C(O)/C=C\C(=O)Nc1ccccc1C(=O)NCc1ccccc1 | 15.6% |
| Cc1ccc(S(=O)(=O)N2CCN(C(=O)c3ccco3)CC2)cc1C | 3.3% |

| SMILES | hERG current change (%, negative = inhibition) at 1uM |
| --- | --- |
| CCOC(=O)c1ccc2nc(NC(=O)C(C)C)sc2c1 | 6.43% |
| Cc1cccc(C(=O)N/C(=C\c2ccco2)C(=O)N2CCCC2)c1 | 3.98% |
| Cc1csc(C(C)N(C)C(=O)c2ccc(OC3CCN(Cc4ccccn4)CC3)cc2)n1 (stereo not drawn) | 9.1% |
| COc1ccc(NS(=O)(=O)c2cc3c(cc2C)N(C(C)=O)CCO3)c(OC)c1 | 12% |
| Cc1ccc(C(=O)OCC(=O)N(C)c2c(N)n(Cc3ccccc3)c(=O)[nH]c2=O)s1 | 8.46% |
| CC1(C)CC(=O)C2=C(C1)Oc1ncn(CCCn3ccnc3)c(=N)c1C2c1ccccc1 (stereo not drawn) | -3.28% |
| C/C(CC(=O)Nc1cc(C)cc(C)c1)=N\NC(=O)c1ccccn1 | 9.88% |
| O=C(c1nc2ccccn2c1CN1CCC(Cc2ccccc2)CC1)N1CCCC1 | -54.2% |
| CCN(c1cccc(C)c1)S(=O)(=O)c1ccc2c(c1)CCCN2C(C)=O | 3.37% |
| CCOC(=O)N1CCN(C(c2cccc(OC)c2)c2sc3nc(C)nn3c2O)CC1 (stereo not drawn) | 7.87% |
| O=C(CSCSCC(=O)NCC1CCCO1)NCC1CCCO1 (stereo not drawn) | 8.17% |
| COc1cc(NC(=O)c2[nH]c(C)c(C(C)=O)c2C)cc(OC)c1OC | 7.52% |
| CC1(c2nnc(Cc3ccccc3)o2)CC(c2ccccc2)=NO1 (stereo not drawn) | -1.1% |
| COc1ccccc1CC(NC(C)=O)C(=O)NC1CCN(C(=O)c2ccc(C)cc2)CC1 (stereo not drawn) | 12.4% |
| CNC(=O)c1cc(C(=O)c2ccccc2C(F)(F)F)c[nH]1 | 10% |
| COCCNC(=O)Cn1ccc2cc(S(=O)(=O)N3CCCCC3)ccc21 | 11.8% |
| COc1ccc(-c2cc(C(F)(F)F)nc(S(C)(=O)=O)n2)cc1OC | 15.8% |
| O=C(NCc1ccco1)C(=O)NCc1ccccc1Cl | 9.73% |
| CC(=O)N1N=C(N)SC12CCCC2 | 15.7% |
| CC1CN(Cc2cc(=O)n3ccsc3n2)CC(C)O1 (stereo not drawn) | 6.79% |
| Cn1c(=O)n(C)c2cc(NC(=O)COc3ccccc3)ccc21 | 18.2% |
